Measurements from PubChem BioAssay AID1347120 (National Center for Advancing Translational Sciences (NCATS), 2019).
The whole screen tested about 390,000 compounds, of which about 930 (0.24%) were called active. Inconclusive results, whose numbers are uncertain, are shown with a selection of clear calls. Calls follow the shape of the dose curve; as a rule, active = well fitted activation curve with a large enough effect; inconclusive = small, poorly fitted or top-dose-only effect; inactive = no such curve, though single readings can be large or run the other way. Potencies beside an inconclusive call are fits to weak or partial responses and may not hold up.

Experiment: qHTS for Suppressors of FUS Proteinopathy: Primary screen using FUS-linked yeast assay; also: nearly all actives have a fitted effect of over 55% in size;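 as to growth rescue (activation): plate controls were DMSO vehicle for no effect and reference control for full effect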
Conditions: S. cerevisiae FUS-expressing, OD600, 24 h; Potency: growth rescue; growth rescue (activation): at 76.6 µM (top of the series)
In short: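 Cultures pregrown in 2.5% raffinose medium are shifted to minimal medium containing 2% galactose to express toxic FUS. Compounds are tested at several concentrations. After 24hr at 30C, growth is quantified at 600 nm absorbance.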
Potency is read from the fitted curve at half-maximal effect; tags tell the direction and shape of the fitted curve.

| Compound | Potency | growth rescue (activation) |
| --- | --- | --- |
| COc1ccc(-n2nc(C(=O)NCC(=O)Nc3cc(OC)ccc3OC)c3ccccc3c2=O)cc1 | inconclusive: 39.8 µM [activator, single point] | – |
| Cc1ccc(CSc2nc3cccnc3n2Cc2ccc(C(=O)NC3CCCCC3)cc2)cc1 | inactive | – |
| CCOC(=O)c1c(N)sc(C(O)(C(F)(F)F)C(F)(F)F)c1-c1ccc(F)cc1 | inconclusive: 11.2 µM [activator, partial curve, poor fit] | – |
| CC1Cc2ccccc2N1C(=O)CN1CCc2ccccc2C1 (centres undefined) | inactive | – |
| COCC(=O)Nc1ccc(N2CCOCC2)c(S(=O)(=O)Nc2ccccc2OC)c1 | inconclusive: 50.1 µM [activator, single point] | – |
| CCC[C@@H]1C[C@@]1(CCC)[C@@H](NP(=O)(c1ccccc1)c1ccccc1)c1ccc(C(=O)OC)cc1 | inconclusive: 12.6 µM [activator, partial curve, poor fit] | – |
| Cc1ccc(Cl)cc1NC(=O)C1CCCN1S(=O)(=O)c1ccc(-c2ccc(=O)[nH]n2)s1 (centres undefined) | inconclusive: 28.2 µM [activator, single point] | – |
| COc1ccc(CCN2CCC(CNC(=O)c3cnn(-c4cccc(Cl)c4)c3C3CCN(C(=O)OC(C)(C)C)CC3)CC2)cc1 | inconclusive: 15.8 µM [activator, partial curve] | – |
| Cc1cccc(Cn2c(Cc3ccccc3)nc3ccccc32)c1 | inactive | – |
| O=C1C=C(c2cc3ccccc3s2)C[C@@H](c2ccc(Cl)cc2)C1 | inactive | – |
| C[C@H](c1ccccc1)N1C[C@@H](COCc2ccccc2)Oc2cc(N3CC[C@H](O)C3)ccc2S1(=O)=O | inconclusive: 39.8 µM [activator, single point] | – |
| COC(=O)c1c(CSc2ccc(Cl)cc2)noc1C(=O)NCc1ccco1 | inconclusive: 22.4 µM [activator, partial curve] | – |
| COc1ccc(NC(=O)CCS(=O)(=O)c2ccccc2Cl)cc1S(=O)(=O)Nc1ccc(Cl)cc1 | active: 31.6 µM | – |
| O=c1c2oc3ccccc3c2n(Cc2cccc(F)c2)c(=O)n1Cc1ccc2c(c1)OCO2 | inactive | – |
| COC(=O)C1(Cc2cc(-c3cccc(Br)c3)no2)CCN(C(=O)OC(C)(C)C)CC1 | inconclusive: 10 µM [activator, full curve] | – |
| COc1cccc(CNC(=O)Cn2c(=O)oc3cc(S(=O)(=O)N4CCCCCC4)ccc32)c1 | inconclusive: 35.5 µM [activator, single point] | – |
| O=C1CCCc2nc(N3CCc4ccccc43)ncc21 | inconclusive: 39.8 µM [activator, single point] | – |
| Cc1cc(C)n2nc(C(=O)N/N=C/c3c4ccccc4cc4ccccc34)nc2n1 | inconclusive: 17.8 µM [activator, partial curve, poor fit] | – |
| CC(C)C[C@@H](CN1CCCC1CN1C(=S)NC[C@@H]1Cc1ccccc1)N1C[C@H](Cc2ccccc2)N(CCc2ccccc2)C1=S (some centres undefined) | inconclusive: 44.7 µM [activator, single point] | – |
| CN(C)c1oc(-c2ccccc2Cl)nc1P(=O)(c1ccccc1)c1ccccc1 | inconclusive: 44.7 µM [activator, single point] | – |
| COc1ccccc1CNc1ncnc2c1nnn2C | inactive | – |
| C=CC[C@H](CC(=O)N(CCO)Cc1ccccc1)C(=O)N[C@H](COC(=O)[C@@H](CC=C)CC(=O)OC(C)(C)C)Cc1c[nH]c2ccccc12 | inconclusive: 14.1 µM [activator, partial curve, poor fit] | – |

| Compound | Potency | growth rescue (activation) |
| --- | --- | --- |
| Cn1c(=O)c2cc(NC(=S)NCc3ccccc3F)ccc2n1Cc1cccc(C(F)(F)F)c1 | inconclusive: 25.1 µM [activator, partial curve, poor fit] | – |
| COc1ccc(C2CC(c3ccccc3)=NN2c2ccc(C(N)=O)cc2)cc1 (centres undefined) | inconclusive: 28.2 µM [activator, single point] | – |
| CC(C)(C)OC(=O)N1CCC(c2c(C(=O)Nc3ccc4c(c3)OCO4)cnn2-c2ccccc2)CC1 | inconclusive: 22.4 µM [activator, partial curve] | – |
| CCc1nc(N2CCCC(C)C2)c2oc3ccccc3c2n1 (centres undefined) | inactive | – |
| Cn1c(SCc2c(F)cccc2Cl)nnc1-c1cccs1 | – | inconclusive: 48.1% [activator] |
| O=C(NNC(=O)c1cc(Cl)ccc1O)c1ccc(NS(=O)(=O)c2cccs2)cc1 | inactive | – |
| C=CCNc1nc(Cl)nc(NC2CCCCC2)n1 | inactive | – |
| COC(=O)[C@@]12C[C@@H](CC(=O)NCCCCc3ccccc3)C(=O)N(Cc3ccc4c(c3)OCO4)C1=CCC(C)(C)C2 | inconclusive: 3.16 µM [activator, full curve] | – |
| S=c1[nH]c(-c2ccccc2)cn1/N=C/c1ccccc1Br | inactive | – |
| Cc1c(C)c2ccc(OCC(=O)N3CCC(C(=O)O)CC3)cc2oc1=O | inactive | – |
| CCOC(=O)C(/C=C(\C#N)C(=O)OCC)=C(/N)N1CCN(c2ccc(OC)cc2)CC1 | inactive | – |
| O=C(NCc1ccco1)c1cc2nc(C3CC3)cc(C(F)(F)F)n2n1 | inconclusive: 5.01 µM [activator, partial curve, poor fit] | – |
| Cc1nnc(N2CCN(C(=O)Nc3cc(F)ccc3F)CC2)c2nn(-c3ccc(Cl)cc3)c(C)c12 | inactive | – |
| O=C(Nc1nc(-c2ccc(F)c(F)c2)cs1)C1=COCCO1 | inactive | – |
| O=C(Nc1ccc(S(=O)(=O)Nc2nccs2)cc1)C1=NN(c2ccccc2)C(=O)CC1 | inconclusive: 50.1 µM [activator, single point] | – |
| CSc1ccccc1NC(=O)CN1c2ccccc2CC1C (centres undefined) | inconclusive: 25.1 µM [activator, single point] | – |
| O=C(Cn1c(=O)n(CCc2c[nH]c3ccccc23)c(=O)c2cccnc21)Nc1ccccc1F | inconclusive: 44.7 µM [activator, single point] | – |
| O=c1c2c3nc4ccccc4nc3n(Cc3ccccc3)c2ncn1Cc1ccco1 | inconclusive: 2.82 µM [activator, full curve] | – |
| Cc1ccc(S(=O)(=O)NC[C@@H]2C[C@H](c3ccccc3)ON2S(=O)(=O)c2ccc(C)cc2)cc1 | inconclusive: 4.47 µM [activator, full curve] | – |
| FC(F)(F)c1ccccc1Cn1ccc2ccc(-c3ccc4ccn(Cc5ccccc5C(F)(F)F)c4c3)cc21 | inactive | – |
| COC(=O)[C@@]1(Cc2ccc(F)cc2)[C@H]2c3cc(C(=O)N4CCCC4)n(CCCNc4ncc(C(F)(F)F)cc4Cl)c3C[C@H]2CN1C(=O)c1ccccc1 | inconclusive: 15.8 µM [activator, partial curve, poor fit] | – |
| COc1ccc(CCN(Cc2cc3cc(C)cc(C)c3nc2Cl)C(=O)C2CC2)cc1 | inactive | – |

| Compound | Potency | growth rescue (activation) |
| --- | --- | --- |
| O=C(CCc1ccccc1)N[C@H]1[C@@H](OC(=O)C2CC2)CCC[C@@]12C(=O)N(Cc1ccccc1)c1ccccc12 | inconclusive: 28.2 µM [activator, single point] | – |
| O=S1(=O)CC2c3ccccc3CN2CN1Cc1ccccc1 (centres undefined) | inactive | – |
| CC(=O)N1CCc2c(sc3c2c(=O)n(CCc2ccccc2)c(=O)n3Cc2ccc(F)cc2)C1 | inconclusive: 20 µM [activator, single point] | – |
| CCN(CC)C(=O)CSc1nnc(-c2cc(-c3ccc(Cl)cc3)nc3ccccc23)o1 | inactive | – |
| COc1ccc2oc(=O)c(C(=O)OCc3ccccc3)cc2c1 | inactive | – |
| CC(C)[C@@H](NC(=O)OC(C)(C)C)c1cc(C(=O)c2c(-c3ccccc3)[nH]c3ccccc23)c(N)s1 | inconclusive: 15.8 µM [activator, partial curve, poor fit] | – |
| O=C(NN=Cc1ccc(-c2ccccc2)cc1)c1cc(-c2ccc(Cl)cc2)n[nH]1 | inactive | – |
| CCc1ccc2c(c1)c1nnc(NN)nc1n2C | inconclusive: 35.5 µM [activator, single point] | – |
| CC(/C=C1\SC(=S)N(C(C(=O)O)C(C)C)C1=O)=C\c1ccccc1 (centres undefined) | inconclusive: 22.4 µM [activator, single point] | – |
| CSc1nc2ccc(S(=O)(=O)Nc3c(C)n(C)n(-c4ccccc4)c3=O)cc2s1 | inconclusive: 5.01 µM [activator, full curve, poor fit] | – |
| CCCOc1ccc(/C=N/Nc2ccc(C(=O)O)cc2)c(OCCC)c1 | inconclusive: 17.8 µM [activator, partial curve, poor fit] | – |
| Cc1c(Cl)cccc1NC(=O)CSc1nc(=O)n(CCN2CCOCC2)c2c1CCC2 | inactive | – |
| O=C(O)Cc1ccc(N2N=C(c3ccccc3)CC2=O)cc1 | inconclusive: 50.1 µM [activator, single point] | – |
| CCOC(=O)c1c(NC(=O)C(C)NCc2ccco2)sc2c1CCC(C)C2 (centres undefined) | inconclusive: 20 µM [activator, partial curve, poor fit] | – |
| CC1=NNC(=O)C1CC(=O)N/N=C/c1sccc1C (centres undefined) | inactive | – |
| CCCCCC(=O)Nc1nc(C)c(-c2csc(Nc3ccccc3OCC)n2)s1 | inconclusive: 35.5 µM [activator, single point] | – |
| C[C@H]1C(=O)N2[C@@H](C[C@]3(c4c[nH]c5ccccc45)c4ccccc4N(S(=O)(=O)c4ccccc4)[C@H]23)C(=O)N1C | inconclusive: 25.1 µM [activator, single point] | – |
| Cc1c(C(=O)NCc2ccc3c(c2)OCCO3)sc(=O)n1Cc1cccc(C(F)(F)F)c1 | inconclusive: 39.8 µM [activator, single point] | – |
| CNc1cccc(-c2c(OC)cccc2OC)n1 | inactive | – |
| C[C@H](CO)N1C[C@H](C)[C@H](CN(C)S(=O)(=O)c2cccs2)Oc2ccc(NC(=O)Nc3ccc4c(c3)OCO4)cc2CC1=O | active: 25.1 µM | – |
